# Test results from PubChem BioAssay AID1631 (National Center for Advancing Translational Sciences (NCATS), 2009).
# In all, about 260,000 compounds went through this assay and about 890 (0.34%) were called active. This list was built around the results that the source calls inconclusive (neither active nor inactive); the mix of calls is not that of the screen. Calls come from the whole dose curve; as a rule, active = well fitted activation curve with a large enough effect; inconclusive = small, poorly fitted or top-dose-only effect; inactive = no such curve, though single readings can be large or run the other way. No potency is given beside an inconclusive call; the fits are too rough.
# Target: Pyruvate kinase PKM (Homo sapiens) (UniProt P14618)
# Chain of UniProt P14618 (P14618 whole entry, looked up, canonical isoform): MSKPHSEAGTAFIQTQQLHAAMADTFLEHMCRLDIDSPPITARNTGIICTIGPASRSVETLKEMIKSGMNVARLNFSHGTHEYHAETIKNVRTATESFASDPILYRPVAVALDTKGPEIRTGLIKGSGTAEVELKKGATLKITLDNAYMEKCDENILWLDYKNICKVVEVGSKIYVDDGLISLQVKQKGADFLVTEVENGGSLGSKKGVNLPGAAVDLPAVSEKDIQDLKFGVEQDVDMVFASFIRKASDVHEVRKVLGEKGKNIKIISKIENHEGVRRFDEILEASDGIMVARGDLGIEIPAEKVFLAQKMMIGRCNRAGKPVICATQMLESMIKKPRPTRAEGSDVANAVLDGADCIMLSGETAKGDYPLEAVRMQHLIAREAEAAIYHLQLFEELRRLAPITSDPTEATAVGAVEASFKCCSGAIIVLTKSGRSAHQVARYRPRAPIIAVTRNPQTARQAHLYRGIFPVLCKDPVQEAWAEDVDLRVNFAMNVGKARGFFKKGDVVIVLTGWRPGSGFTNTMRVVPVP
# Assay: qHTS Assay for Activators of Human Muscle isoform 2 Pyruvate Kinase; note: nearly all actives have a fitted effect of over 55% in size
# Settings: purified PKM2, Kinase-Glo ATP luminescence; Potency: activation; activation: at 57.5 µM (top of the series), 0% is enzyme alone, no compound
# How it was run: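 Purified hPK-M2 (>95% pure) converted ADP (0.1 mM final) to ATP with 0.5 mM PEP in 50 mM imidazole pH7.2, KCl, MgCl2, Tween 20, BSA; 1 h at room temperature. ATP detected by Kinase-Glo luminescence.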
# % is set by controls: 0 for no effect and ±100 for the full control effect; potency is the fitted concentration of half-maximal effect; tags give direction and shape of the fitted curve.
SMILES,activation,Potency
CCn1c(=O)n(CC)c2cc(N3CCCC3)c(NC(=O)c3ccc(C)c([N+](=O)[O-])c3)cc21,"inactive: -0.363% [at 0.46 µM, 0% is enzyme alone, no compound]",
CSC1=NCCN1C(=O)Cc1cccc2ccccc12,,"inconclusive [rising, single point]"
COc1ccc(CSc2ncnc3sccc23)cc1F,,"inconclusive [rising, single point]"
Cc1cccc(OCCn2c(=S)[nH]c3ccccc32)c1,,inactive
O=C(NC12CC3CC(CC(C3)C1)C2)c1cccnc1,,inactive
COc1ccc(CCNC(=O)/C=C/c2cc(OC)c(OC)c(OC)c2)cc1OC,,"inconclusive [rising, single point]"
O=C1ON=C(c2ccc(Cl)cc2)/C1=C/c1ccc(O)cc1,,"inconclusive [rising, single point]"
O=C(CSc1ncn[nH]1)c1ccccc1,,inactive
Cc1ccccc1N1CCN(C(=S)c2ccc(-c3cccc([N+](=O)[O-])c3)o2)CC1,,"inconclusive [rising, partial curve, poor fit]"
COc1ccc([C@]23Cc4ccccc4C(O2)C2=C(CC(C)(C)CC2=O)O3)cc1,,"inconclusive [rising, single point]"
Cc1c(C(=O)OCc2ccccc2)[nH]c2c1C(=O)CC(c1ccco1)C2 (configuration not stated),,"inconclusive [rising, partial curve]"
CCc1c(C)nc(N2CCN(c3ccc(Cl)cc3)CC2)[nH]c1=O,,inactive
CCOc1ccc(CC(=O)Nc2cc(=O)n(C)c(=O)n2C)cc1,,"inconclusive [rising, single point]"
C=CCNC1=C(Cl)C(=O)c2ccccc2C1=O,,inactive
COC(=O)Nc1ccc([N+](=O)[O-])cc1OC,,"inconclusive [rising, single point]"
COc1ccccc1S(=O)(=O)N1CCN(S(=O)(=O)c2ccccc2C#N)CC1,,active: 2 µM
O=C(CSc1ccc2ccccc2c1)NCCc1ccc(O)c(O)c1,,active: 2.82 µM
CCOc1ccc(NC(=O)Cc2ccccc2)c([N+](=O)[O-])c1,,"inconclusive [rising, single point]"
O=c1ccc(-c2ccc(S(=O)(=O)NCc3cccc(Br)c3)s2)n[nH]1,,"inconclusive [rising, partial curve]"
O=S(=O)(NCCCO)c1ccc2c(c1)Cc1cc(S(=O)(=O)NCCCO)ccc1-2,,active: 12.6 µM
Cn1cc(SCC(=O)Nc2nccs2)c2ccccc21,,"inconclusive [rising, single point]"
CCOC(=O)c1c(C)[nH]c(C(=O)CSc2ccccc2)c1C,,inactive
OCCn1c(CSc2nnc(-c3ccco3)n2-c2ccccc2)nc2ccc(Cl)cc21,,"inconclusive [rising, full curve, poor fit]"
COc1ccc(-c2nn(-c3ccccc3)cc2/C=N/NS(=O)(=O)c2ccccc2)cc1,,"inconclusive [rising, single point]"

SMILES,activation,Potency
COC(=O)Cc1ccc(NC(=S)Nc2ccccn2)cc1,,"inconclusive [rising, single point]"
Nc1nc2ccccc2nc1N,,inactive
O=C(O)c1ccc(NC(=O)c2ccc3c(c2)C(=O)N(CC2CCCO2)C3=O)cc1 (configuration not stated),,inactive
CNS(=O)(=O)c1ccc(NCC2COc3ccccc3O2)c([N+](=O)[O-])c1 (configuration not stated),,"inconclusive [rising, partial curve]"
O=c1c2ccc(Cl)cc2[nH]c(=S)n1Cc1cccnc1,,active: 3.16 µM
COc1ccc(-c2cc(C(=O)NCCN3CCOCC3)c3ccccc3n2)cc1,,inactive
O=C(NC(=S)Nc1ccc(-c2ccc(CO)o2)cc1)c1cccs1,,"inconclusive [rising, partial curve]"
CC(=O)Nc1ccc(S(=O)(=O)c2ccc(N)cc2)cc1,,"inconclusive [rising, partial curve]"
Cc1sc(N(C(=O)CCc2ccccc2)c2ccc(C(=O)O)cc2)nc1-c1ccccc1,,"inconclusive [rising, single point]"
CN1CCN(CCC(=O)N/N=C/c2cc([N+](=O)[O-])ccc2O)CC1,,inactive
NS(=O)(=O)c1cccc(NC(=O)CCS(=O)(=O)c2ccc(Cl)cc2)c1,,"inconclusive [rising, partial curve]"
Fc1ccccc1CNCC1CCCO1 (configuration not stated),,"inconclusive [rising, single point]"
Nc1c(S(=O)(=O)c2cccc(Cl)c2)c2nc3ccccc3nc2n1/N=C/c1ccc(O)c(O)c1,,"inconclusive [rising, partial curve]"
CC(=O)c1c(C)[nH]c(C(=O)Nc2ccc(C)cc2Br)c1C,,"inconclusive [rising, partial curve]"
O=C(Nc1ccc2c(c1)OCO2)NC1(C(F)(F)F)Oc2ccccc2O1,,inactive
C/C(=N\NC(=O)c1ccco1)c1ccc(NC(=O)C(F)(F)F)cc1,,inactive
Cc1ccc(/C(N)=N/OC(=O)c2ccc(C)cc2Cl)cc1,,inactive
CCCCNS(=O)(=O)c1ccc2nc(SCC(=O)c3ccc(C#N)cc3)[nH]c2c1,,active: 22.4 µM
COCCn1c(=O)[nH]c2cc(C(=O)N3CCN(c4ccccc4OC)CC3)ccc2c1=O,,"inconclusive [rising, partial curve, poor fit]"
C=C(C)C(=O)N1CC2(CC(c3cccc(NC(=O)/C=C\C=C/C)c3)=NO2)C[C@H]1C(N)=O (some centres not stated),,"inconclusive [rising, single point]"
Cc1ccc(C2/C(=C(/O)c3ccc(Br)cc3)C(=O)C(=O)N2Cc2ccco2)o1 (configuration not stated),,"inconclusive [rising, single point]"
CCCN(CC1CC1)c1nc(N)c2c(N)nc(OC)cc2c1C#N,,"inconclusive [rising, partial curve]"
C=C(C)CSc1nc2c(c(=O)[nH]c(=O)n2C)n1Cc1ccccc1,,inactive
